No constants are given. Whether binding was seen depends on the method and setting. Binding seen in cells or lysates may run through a third protein. Some binding calls cover weakened binding; strength is not graded here. Where a sequence is shown, tags or fusion partners need not be part of it.
T1: FLAG-tagged RhoGDI-3 (human) (UniProt Q99819)
T1 sequence: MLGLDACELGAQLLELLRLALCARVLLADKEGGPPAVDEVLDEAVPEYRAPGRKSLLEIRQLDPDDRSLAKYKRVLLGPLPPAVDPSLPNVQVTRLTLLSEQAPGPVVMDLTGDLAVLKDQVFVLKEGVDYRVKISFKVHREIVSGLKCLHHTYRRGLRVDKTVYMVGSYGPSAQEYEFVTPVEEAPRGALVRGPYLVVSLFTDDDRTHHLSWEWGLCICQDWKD

T2: His-tagged or FLAG-tagged RhoGDI-1 (human) (UniProt P52565)
T2 sequence: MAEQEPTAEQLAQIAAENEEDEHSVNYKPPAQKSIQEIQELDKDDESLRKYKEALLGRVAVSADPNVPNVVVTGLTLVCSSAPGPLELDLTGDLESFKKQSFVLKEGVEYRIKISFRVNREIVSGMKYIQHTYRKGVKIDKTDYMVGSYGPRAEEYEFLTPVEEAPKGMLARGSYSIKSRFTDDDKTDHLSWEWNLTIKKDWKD

T3: His-tagged or FLAG-tagged RhoGDI-2 (human) (UniProt P52566)
T3 sequence: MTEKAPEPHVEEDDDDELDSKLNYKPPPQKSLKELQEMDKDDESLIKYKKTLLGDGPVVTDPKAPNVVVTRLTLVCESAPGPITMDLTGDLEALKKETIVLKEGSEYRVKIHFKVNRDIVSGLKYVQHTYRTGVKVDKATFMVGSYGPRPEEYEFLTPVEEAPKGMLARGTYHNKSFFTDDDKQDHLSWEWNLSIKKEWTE


Tests used:
[1] = target: T1, FLAG-tagged RhoGDI-3 (human); assay: co-IP; FLAG-tagged RhoGDI-3 co-expressed with V5-tagged GTPase in HEK293T; immunoprecipitated from lysate with anti-FLAG antibody cross-linked to magnetic beads; anti-V5 Western blot
[2] = target: His-tagged RhoGDI-1 (human) (UniProt P52565); assay: pull-down; His-tagged RhoGDI co-expressed with V5-tagged GTPase in HEK293T; RhoGDI precipitated from lysate (1% Triton X-100, 150 mM NaCl, pH 7.4) with nickel-coated magnetic beads; anti-V5 Western blot; the paper calls it coimmunoprecipitation
[3] = target: His-tagged RhoGDI-2 (human) (UniProt P52566); assay: as above
[4] = target: T2, His-tagged or FLAG-tagged RhoGDI-1 (human); assay: pull-down + co-IP; His-tagged or FLAG-tagged RhoGDI-1 or RhoGDI-2 co-expressed with V5-tagged atypical GTPase or Miro in HEK293T; precipitated with nickel-coated magnetic beads or with anti-FLAG antibody cross-linked to magnetic beads (not told which in each panel); anti-V5 Western blot
[5] = target: T3, His-tagged or FLAG-tagged RhoGDI-2 (human); assay: as above

| Binder | binding [1] | binding [2] | binding [3] | binding [4] | binding [5] |
| --- | --- | --- | --- | --- | --- |
| V5-tagged RhoD (protein, UniProt O00212 1-210) MTAAQAAGEEAPPGVRSVKVVLVGDGGCGKTSLLMVFADGAFPESYTPTVFERYMVNLQVKGKPVHLHIWDTAGQDDYDRLRPLFYPDASVLLLCFDVTSPNSFDNIFNRWYPEVNHFCKKVPIIVVGCKTDLRKDKSLVNKLRRNGLEPVTYHRGQEMARSVGAVAYLECSARLHDNVHAVFQEAAEVALSSRGRNFWRRITQGFCVVT | binds | no binding | no binding |  |  |
| V5-tagged RhoF (protein, UniProt Q9HBH0 1-211) MDAPGALAQTAAPGPGRKELKIVIVGDGGCGKTSLLMVYSQGSFPEHYAPSVFEKYTASVTVGSKEVTLNLYDTAGQEDYDRLRPLSYQNTHLVLICYDVMNPTSYDNVLIKWFPEVTHFCRGIPMVLIGCKTDLRKDKEQLRKLRAAQLEPITYMQGLSACEQIRAALYLECSAKFRENVEDVFREAAKVALSALKKAQRQKKRRLCLLL | binds | binds | no binding |  |  |
| V5-tagged Wrch2/RhoV (protein, UniProt Q96L33 1-236) MPPRELSEAEPPPLRAPTPPPRRRSAPPELGIKCVLVGDGAVGKSSLIVSYTCNGYPARYRPTALDTFSVQVLVDGAPVRIELWDTAGQEDFDRLRSLCYPDTDVFLACFSVVQPSSFQNITEKWLPEIRTHNPQAPVLLVGTQADLRDDVNVLIQLDQGGREGPVPQPQAQGLAEKIRACCYLECSALTQKNLKEVFDSAILSAIEHKARLEKKLNAKGVRTLSRCRWKKFFCFV | binds |  |  | no binding | no binding |
| V5-tagged RhoH (protein, UniProt Q15669 1-191) MLSSIKCVLVGDSAVGKTSLLVRFTSETFPEAYKPTVYENTGVDVFMDGIQISLGLWDTAGNDAFRSIRPLSYQQADVVLMCYSVANHNSFLNLKNKWIGEIRSNLPCTPVLVVATQTDQREMGPHRASCVNAMEGKKLAQDVRAKGYLECSALSNRGVQQVFECAVRTAVNQARRRNRRRLFSINECKIF | binds |  |  | no binding | no binding |
| V5-tagged Rnd2 (protein, UniProt P52198 1-227) MEGQSGRCKIVVVGDAECGKTALLQVFAKDAYPGSYVPTVFENYTASFEIDKRRIELNMWDTSGSSYYDNVRPLAYPDSDAVLICFDISRPETLDSVLKKWQGETQEFCPNAKVVLVGCKLDMRTDLATLRELSKQRLIPVTHEQGTVLAKQVGAVSYVECSSRSSERSVRDVFHVATVASLGRGHRQLRRTDSRRGMQRSAQLSGRPDRGNEGEIHKDRAKSCNLM | binds |  |  | no binding | no binding |
| V5-tagged Rnd1 (protein, UniProt Q92730 1-232) MKERRAPQPVVARCKLVLVGDVQCGKTAMLQVLAKDCYPETYVPTVFENYTACLETEEQRVELSLWDTSGSPYYDNVRPLCYSDSDAVLLCFDISRPETVDSALKKWRTEILDYCPSTRVLLIGCKTDLRTDLSTLMELSHQKQAPISYEQGCAIAKQLGAEIYLEGSAFTSEKSIHSIFRTASMLCLNKPSPLPQKSPVRSLSKRLLHLPSRSELISSTFKKEKAKSCSIM |  |  |  | no binding | no binding |
